# Laboratory results from PubChem BioAssay AID485344 (National Center for Advancing Translational Sciences (NCATS), 2010).
# About 6,900 (2%) of roughly 340,000 compounds were called active. No stated cut-off is given here; in the data, active means inhibition above about 30%; inactive means below that, where a call was filed. Only a part is listed here, and it is no random draw. Where no call is shown, the source filed none.
# Target: D(2) dopamine receptor (Homo sapiens) (UniProt P14416)
# Test: HTS Assay for Allosteric Antagonists of the Human D2 Dopamine Receptor: Primary Screen for Antagonists; further: 0% is about no effect
# Settings: HEK293 TREx D2 cells, calcium flux, dopamine EC80; at 10 µM; stronger effect = higher value
# How it was run: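 Dopamine at EC80 is the agonist stimulus; test compounds precede it by 180 s. Calcium flux read kinetically in a force-coupled, inducible HEK293 T-REx D2 cell line.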
# Sequence of UniProt P14416 (P14416 whole entry, looked up): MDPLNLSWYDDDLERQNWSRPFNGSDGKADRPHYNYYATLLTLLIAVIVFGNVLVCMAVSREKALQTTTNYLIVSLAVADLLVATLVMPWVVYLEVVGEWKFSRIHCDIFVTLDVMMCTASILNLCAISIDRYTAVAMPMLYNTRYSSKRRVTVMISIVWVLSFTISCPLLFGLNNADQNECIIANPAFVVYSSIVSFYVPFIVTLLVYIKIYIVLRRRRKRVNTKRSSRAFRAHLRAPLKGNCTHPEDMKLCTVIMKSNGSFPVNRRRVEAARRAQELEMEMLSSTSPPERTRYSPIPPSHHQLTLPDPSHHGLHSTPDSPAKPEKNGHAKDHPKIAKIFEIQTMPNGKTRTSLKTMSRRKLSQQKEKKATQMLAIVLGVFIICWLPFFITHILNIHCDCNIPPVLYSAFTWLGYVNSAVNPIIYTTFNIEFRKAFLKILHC
row,SMILES,inhibition
1,CCCC1=Nc2cc(C(=O)NCc3ccccc3)ccc2Sc2ccccc21,5.57%
2,COc1ccc(S(=O)(=O)NCCc2sc(-c3cccnc3)nc2C)cc1,-15.4%
3,Cn1c(=O)c2c(-c3ccccc3)n3c(c2n(C)c1=O)C(c1ccc([N+](=O)[O-])cc1)Nc1ccccc1-3 (stereo unspecified),-10.3%
4,COc1ccc(NC(=O)Cn2c(=O)c3cccn3c3ccccc32)cc1,-4.54%
5,O=C(NC1CC(=O)N(c2ccc(F)cc2)C1)c1ccc(S(=O)(=O)N2CCOCC2)cc1 (stereo unspecified),12.9%
6,Cc1ccc(C(=O)c2oc3ccccc3c2NC(=O)c2cc(-c3ccccc3)on2)cc1,10.9%
7,Cc1ccc(-n2ncc3c(Nc4ccc5c(c4)OCCO5)ncnc32)cc1Cl,-21.5%
8,CCOC(=O)c1c(NC(=O)c2ccc(S(=O)(=O)N3CCCC(C)C3)cc2)sc2c1CC(C)(C)NC2(C)C (stereo unspecified),-4.02%
9,CCOCCCN1C(=O)CN(C2CCCCCC2)C(=O)C1c1ccc(OCC)c(OC)c1 (stereo unspecified),23.1%
10,CCOc1ccc(CCNC(=O)NCc2noc3ccc(C)cc23)cc1,1.78%
11,CCOCCc1nn2c(=O)cc(COC(=O)c3ccc(NC(=O)c4cccs4)cc3)nc2s1,5.5%
12,Cc1cccc(C(=O)N2CCc3cc(CNC(=O)c4ccco4)ccc32)c1,16.1%
13,CC(C)(C)OC(=O)N1CCNc2ccccc2C1,active: 30.5%
14,CCCn1c2ccccc2c2cnn(CC(=O)NCC3CCN(Cc4ccccc4C)CC3)c(=O)c21,20.2%
15,COc1ccccc1CNc1nccn(-c2ccc(F)cc2)c1=O,9.97%
16,COC(=O)CN1C(=O)C(O)(c2c(C)[nH]c3ccccc23)c2ccccc21 (stereo unspecified),-5.72%
17,Cc1csc2nc(COc3ccc(NC(=O)c4ccccc4F)cc3)cc(=O)n12,9.26%
18,COc1ccc(C(=O)Nc2nc(-c3ccc(Br)cc3)ns2)cc1,9.11%
19,O=C(Nc1cccc(Br)c1)c1cc(S(=O)(=O)N2CCCCC2)c[nH]1,7.75%
20,COc1ccc(-c2nc3n(n2)C(c2ccc(O)cc2)C(C(=O)Nc2cccnc2)=C(C)N3)cc1OC (stereo unspecified),7.1%
21,Cc1cc(S(=O)(=O)Nc2cc3c(cc2N2CCOCC2)n(C)c(=O)c(=O)n3C)ccc1F,-4.14%
22,CC(C)=C(NC(=O)c1ccccc1)C(=O)N/N=C(\C)c1ccccc1O,active: 62.7%
23,COc1ccc(-c2nc3ccccc3s2)cc1NC(=O)c1cc(OC)c(OC)c(OC)c1,0.0323%
24,COc1ccc(C(=O)N2CCN(C(=O)COc3ccccc3)CC2)cc1OC,8.57%
25,O=C(c1ccc2c(c1)N(Cc1ccccc1)C(=O)c1ccccc1S2(=O)=O)N1CCOCC1,11%
26,CCc1ccc(-n2c(N3CCN(c4ccc(F)cc4)CC3)nc3ccccc3c2=O)cc1,-3.49%

row,SMILES,inhibition
1,COc1ccc(NC(=O)C(NC(=O)/C=C\c2ccc3c(c2)OCO3)c2ccc(C)cc2)cc1 (stereo unspecified),-8.46%
2,O=C(NCCCN1CCN(c2cccc(Cl)c2)CC1)C1(S(=O)(=O)c2ccc(Cl)cc2)CC1,active: 34.6%
3,O=C(Nc1ccc2cn[nH]c2c1)c1ccc(S(=O)(=O)N2CCOCC2)cc1,active: 30.5%
4,O=C(Nc1ccc2oc(-c3cccnc3)nc2c1)c1ccccc1F,-4.63%
5,O=C(C[n+]1ccccc1)N/N=C/c1cc(Br)cc(Br)c1O,active: 31.7%
6,COc1ccc(CC(=O)N2CCc3c([nH]c4ccccc34)C2c2ccc(SC)cc2)cc1 (stereo unspecified),3.98%
7,COCCNC(=O)CCn1nc(-c2ccc(Cl)cc2)c2ccccc2c1=O,-5.46%
8,CC(=O)N1CCCc2cc(S(=O)(=O)Nc3ccc(Cl)cc3F)ccc21,-4.08%
9,COc1ccccc1CNC(=O)C(=O)NCC(c1cccnc1)N1CCN(c2ccccc2)CC1 (stereo unspecified),20%
10,Cc1noc(C)c1S(=O)(=O)N(CC(=O)NCc1ccccc1)c1ccc(C(C)C)cc1,5.32%
11,O=C(COCc1cc(-c2ccco2)on1)Nc1cc(Cl)ccc1O,-4.22%
12,COc1ccc(-c2nc(SCC(=O)NC3CCCC3)c(-c3ccc(F)cc3)[nH]2)cc1OC,27.4%
13,COc1ccc(C)cc1NC(=O)Cn1nc(N2CCN(c3ccccc3OC)CC2)ccc1=O,-6.99%
14,COc1ccccc1Cc1nc2ccccc2nc1SCC(=O)NCc1ccc(C)cc1,-11.3%
15,O=C(CN1CCN(C2CCCCC2)CC1)c1c[nH]c2ccccc12,active: 41.6%
16,COc1cccc(CNC(=O)c2nn(C)c3c2CSc2ccccc2-3)c1,17.9%
17,COc1ccc(NC(=O)c2cnc3cc(C)ccn3c2=O)c(OC)c1,-3.85%
18,COc1ccc(Cn2c(=O)n(-c3ccc(C)cc3)c(=O)c3c2c2cc(C)ccc2n3C)cc1,4.57%
19,Cc1ccc(C)c(CN2CCCN(Cc3ccccc3C)S2(=O)=O)c1,-8.01%
20,O=C(CN1C(=O)CCc2cc(Br)ccc21)Nc1ccc(OC(F)(F)F)cc1,19%
21,COc1ccccc1NC(=O)CSc1nnc2c(n1)[nH]c1ccccc12,20.9%
22,Cc1noc(-c2ccc(-c3noc(-c4ccc(Cl)cc4)n3)cc2)n1,-3.03%
23,OCCNCCOc1ccccc1-c1ccccc1,active: 66.4%
24,COc1ccc(Cc2nc(-c3ccc(Br)cc3)no2)cc1,active: 31.2%
25,Cc1ccc2nc(-c3ccc(Cl)c(NC(=O)COc4ccc([N+](=O)[O-])cc4)c3)oc2c1,-0.595%
26,CCOC(=O)c1c(C)oc2ccc(N(C(=O)c3ccncc3)S(=O)(=O)c3ccc(F)cc3C)cc12,15.2%

row,SMILES,inhibition
1,O=C(Cn1c(=O)n(-c2ccccc2)c(=O)c2c3c(sc21)CCC3)c1ccc(Br)cc1,0.215%
2,Cc1cccc(CS(=O)(=O)Cc2ccc(C(=O)NCc3ccc(F)cc3)o2)c1,-24.7%
3,COc1ccc(CCNC(=O)CN2C(=O)c3ccccc3S2(=O)=O)cc1,active: 34.5%
4,COc1ccccc1N1CCN(S(=O)(=O)c2cc(C(=O)Nc3ccc(Oc4ccccc4)cc3)ccc2F)CC1,18.4%
5,COc1cccc(NC(=O)c2cnc(SCC(=O)N3CCCc4ccccc43)n(C)c2=O)c1,20.4%
6,Cc1ccnc(NC(c2cccc(O)c2)c2ccc3ccc(C)nc3c2O)c1 (stereo unspecified),1.09%
7,Cc1ccc(CNC(=O)c2cc3sc(Cl)cc3n2C)cc1,-3.95%
8,COc1ccccc1Cn1c(C2CC(=O)N(c3ccccc3OC)C2)nc2ccccc21 (stereo unspecified),19.9%
9,O=C(CSC1=Nc2ccccc2C2=NC(Cc3ccccc3)C(=O)N12)Nc1cccc(Cl)c1 (stereo unspecified),2.79%
10,Cc1cc(S(=O)(=O)N2CCN(c3ccccn3)CC2)ccc1F,active: 33%
11,COc1ccccc1NC(=O)c1ccc(NC(=O)CN2CCN(C(=O)c3ccco3)CC2)cc1,active: 40.9%
12,CCc1ccc2occ(CC(=O)Nc3c(C(=O)c4ccccc4)oc4ccccc34)c2c1,3.56%
13,CCOC(=O)c1c(-c2ccccc2)oc2ccc(NS(=O)(=O)c3ccc(C)cc3)cc12,-17.1%
14,CCN1C(=O)c2ccccc2Sc2ccc(NC(=O)Nc3cc(C)cc(C)c3)cc21,22.8%
15,COc1ccc(Cl)c2sc(NC(=O)c3ccc(S(=O)(=O)N4CCCC4)cc3)nc12,-23.9%
16,COc1ccccc1NC(=O)CSCc1cc(=O)c2cccc(Cl)c2[nH]1,15.3%
17,CCOc1ccccc1CNS(=O)(=O)c1ccc(-c2cnc(C3CC3)o2)cc1,-14.6%
18,COc1ccc(S(=O)(=O)c2cn(C)c3cc(N4CCCCCC4)c(F)cc3c2=O)cc1,5.5%
19,COc1ccc(-c2noc(-c3nnn(-c4ccc(C)cc4C)c3C)n2)cc1,-5.37%
20,COc1ccc(NC(=O)CSC2=Nc3ccccc3C3=NC(CCC(=O)NC4CCCCC4)C(=O)N23)cc1Cl (stereo unspecified),-5.76%
21,Cc1ccc(-n2nc(CO)c(C(=O)NCc3cccnc3)n2)cc1C,5.42%
22,O=C(Nc1cc(F)ccc1F)C1CCN(C(=O)c2cnn(-c3ccccc3)c2-n2cccc2)CC1,2.39%
23,Cc1ccc(NC(=O)CSc2nncn2C)c(C)c1,0.381%
24,FC(F)(F)c1cccc(CN2CCC(c3cc(-c4cccs4)n[nH]3)CC2)c1,active: 83.9%
